Measured values as given in the supplement of paper PMC3334620.
In all, about 33,000 sequences were measured (“E-score (-0.5 to 0.5)”: median about -0.011, highest 2% from about 0.28 on). The list shows a part of the results.

Target: T1, Gcr1 (UniProt P07261)
T1 sequence: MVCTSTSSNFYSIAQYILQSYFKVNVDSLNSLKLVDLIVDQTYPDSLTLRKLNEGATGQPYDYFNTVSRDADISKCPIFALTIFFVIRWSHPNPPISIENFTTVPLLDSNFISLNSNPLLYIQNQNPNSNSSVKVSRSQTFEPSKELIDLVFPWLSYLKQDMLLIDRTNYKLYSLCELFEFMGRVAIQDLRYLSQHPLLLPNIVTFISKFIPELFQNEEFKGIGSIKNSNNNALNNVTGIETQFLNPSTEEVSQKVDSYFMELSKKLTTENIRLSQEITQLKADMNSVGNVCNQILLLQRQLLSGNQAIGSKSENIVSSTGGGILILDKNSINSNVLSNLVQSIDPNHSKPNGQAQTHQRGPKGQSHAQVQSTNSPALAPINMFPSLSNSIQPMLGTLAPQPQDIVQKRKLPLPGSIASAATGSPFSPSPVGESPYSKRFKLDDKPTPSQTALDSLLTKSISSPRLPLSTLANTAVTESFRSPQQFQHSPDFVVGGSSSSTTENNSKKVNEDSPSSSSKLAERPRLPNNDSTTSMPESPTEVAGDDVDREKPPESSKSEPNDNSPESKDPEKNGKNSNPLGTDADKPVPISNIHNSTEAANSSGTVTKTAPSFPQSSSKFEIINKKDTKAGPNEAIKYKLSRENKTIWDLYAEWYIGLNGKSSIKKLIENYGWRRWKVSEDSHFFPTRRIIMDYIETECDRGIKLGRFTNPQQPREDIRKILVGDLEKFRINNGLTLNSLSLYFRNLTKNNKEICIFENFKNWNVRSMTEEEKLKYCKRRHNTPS
Test: PBM E-score (8-mer binding enrichment) (E-score (-0.5 to 0.5)); higher = stronger / more preferred TF binding; most listed sequences are background and not binding sites
Details: protein concentration: 100 nM; construct: GST-full length
In short: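 GST-tagged yeast TFs (full-length or DNA-binding domain) were made by PURExpress in vitro transcription/translation and applied at about 100-200 nM to universal all-10-mer Agilent arrays. The arrays were made double-stranded by primer extension, on fresh or once-stripped slides. Bound protein was detected with fluorescent anti-GST, and scans were normalised with masliner. Each ungapped eight-base word, pooled with its reverse complement, received an E-score (modified Wilcoxon-Mann-Whitney statistic) from the Universal PBM Analysis Suite.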

Row | Sequence | PBM E-score
1 | TAGTGCAA | -0.0738
2 | CTTGCGGA | 0.0331
3 | ATGTGTGC | -0.153
4 | AACTACGT | -0.0547
5 | GTTAGCCA | -0.0554
6 | ACATATAA | -0.0176
7 | ATGACAGA | -0.0106
8 | ATTACAGG | 0.355
9 | GGGGCCAC | 0.12
10 | ATTCGAAA | 0.0901
11 | AGTTGGTC | 0.0716
12 | GCCGGCAC | 0.0716
13 | GGATGCAC | 0.0822
14 | ATTATACA | 0.0559
15 | CCGAACCG | -0.0578
16 | AGCGACAT | 0.158
17 | AAAACGAT | 0.057
18 | CAAGGAGA | -0.0625
19 | CTTAAGTC | -0.00814
20 | GAGGGACC | -0.0798
21 | CAAATCGC | -0.211
22 | CAACAGCG | 0.02
23 | CGGAGGAG | -0.374
24 | ACGCTCGG | -0.116
25 | AACGCCCT | -0.026

Row | Sequence | PBM E-score
26 | TGAGTACA | 0.0864
27 | ATAAGCAA | -0.0154
28 | ATGCGGTG | -0.0428
29 | CCTTGAAA | 0.0516
30 | GAACCATA | 0.1
31 | TGAGACAA | -0.0715
32 | AAGGCACT | 0.0375
33 | TCATTGGA | -0.0473
34 | CTCATTAA | 0.135
35 | CCATTGCG | -0.147
36 | CCCTATGA | 0.122
37 | CTCTCTCC | -0.0838
38 | CGGTCGAG | 0.0179
39 | GTGCGAGA | -0.0259
40 | CGAAGAAC | -0.128
41 | AATTAGTA | 0.211
42 | AGTCTCTA | -0.188
43 | CCGGTAGC | 0.222
44 | CTCAGTTA | 0.125
45 | GCAGGAAA | 0.0396
46 | TGATGAAA | -0.0671
47 | ACACCTCG | 0.0311
48 | GAGGACGA | -0.0483
49 | CTCCCTGC | -0.259
50 | ATTGCACG | 0.0734

Row | Sequence | PBM E-score
51 | AATAGGAC | 0.206
52 | AATCGTAC | 0.0574
53 | ATAGTATA | -0.0176
54 | GCAATAAC | -0.184
55 | GACCGACA | -0.0639
56 | GCTTTATA | 0.093
57 | GAATCGAA | 0.241
58 | ACTCAATA | 0.156
59 | CATGTACG | -0.0811
60 | CTTCAAAA | 0.104
61 | CAGTCAGC | -0.0658
62 | AAAATGGA | 0.142
63 | AGAAACCT | -0.0336
64 | ACACCGAA | 0.0782
65 | GTCCGTCA | 0.0199
66 | AGCGTCTA | 0.307
67 | ACTACTCT | -0.094
68 | GACCGAGC | -0.154
69 | ACTGGACA | 0.0644
70 | ACGTGACA | -0.124
71 | AATGTATA | -0.0223
72 | GCATGGAA | -0.181
73 | CAGCGTTC | -0.0576
74 | GACCAGCC | -0.185
75 | CTGTCGTC | -0.0446

Row | Sequence | PBM E-score
76 | AGGGGTCG | -0.186
77 | CTGCTGAA | 0.0667
78 | ATGAAACA | -0.0461
79 | TACAACTA | 0.0122
80 | AGCAGCAC | -0.0251
81 | GGATGACC | -0.187
82 | AGAGTAAG | -0.111
83 | CCGTGCAA | -0.159
84 | AGTGTCAC | -0.117
85 | AACACTAT | -0.0104
86 | CGGATGGC | -0.151
87 | GCGTTCGA | -0.184
88 | ACATTTTA | 0.247
89 | CTAACTCA | -0.106
90 | ATCGAACA | -0.0618
91 | CTAGATTC | 0.183
92 | CGTTTTAA | 0.134
93 | ACCAAAGG | -0.0537
94 | CCCAATGC | -0.0734
95 | CCCTGGTC | -0.251
96 | ACCTGAAT | 0.172
97 | GTAATTTA | 0.109
98 | GCGCGGAC | 0.012
99 | AAAGTGAA | 0.111
100 | GAGTATAA | -0.153

Row | Sequence | PBM E-score
101 | TCCCTAAA | 0.139
102 | AGACGGAA | -0.0525
103 | ACGAATTA | 0.0985
104 | AACGGTTG | -0.168
105 | ACTCCACA | 0.1
106 | ATTCGGGC | 0.0222
107 | CTACTCAC | -0.0637
108 | AACCCGAC | 0.0284
109 | CAATCTCC | 0.0196
110 | CCTGGTGA | 0.121
111 | AAGTGACT | -0.0465
112 | CGTGGGTC | -0.251
113 | AGAGGGAC | -0.246
114 | AAACTCAA | 0.046
115 | CGAAGCGA | -0.105
116 | ATGTTTCC | 0.042
117 | ACAGCAGT | -0.0218
118 | CGGGCGGC | 0.0469
119 | AGCCCAAA | 0.179
120 | GGCGCAAA | -0.0189
121 | CCCGCCAA | -0.207
122 | GCCAGAGC | -0.0666
123 | ACGTCTGC | -0.157
124 | ACAAGTTA | 0.0121
125 | AAAAGACG | 0.131

Row | Sequence | PBM E-score
126 | ACGCCGAG | -0.0928
127 | AGCTCGCG | -0.0019
128 | CACGACCG | -0.191
129 | AGGACGCG | 0.283
130 | GGTGCAAC | -0.0806
131 | GAGTCGGA | 0.036
132 | ATTGTTAC | 0.184
133 | TAAGGAAA | -0.0269
134 | CGGTTCGA | -0.0867
135 | AGAGCCGG | 0.0486
136 | ATTATCTC | 0.0819
137 | CTGGCAAG | 0.0198
138 | CAGTAGAG | -0.0878
139 | AGCTTATG | 0.0485
140 | AACGTGGT | 0.0562
141 | GATCCACC | -0.00046
142 | GAATTCTC | 0.157
143 | AGAGCCCA | 0.0698
144 | ATACTGGC | 0.161
145 | CCGATTCC | 0.124
146 | AGGTGCAG | -0.205
147 | CCATCGGG | -0.0175
148 | AGTTGTGC | -0.0521
149 | GGCTGGTA | -0.0695
150 | CCTTAAAA | 0.13

Row | Sequence | PBM E-score
151 | ATCCATAG | -0.169
152 | CCAGTATA | 0.235
153 | ATCAAGCA | 0.0584
154 | CTGCGGTC | 0.0555
155 | TATGACGA | 0.0408
156 | AGTCTATG | -0.147
157 | ATGAAGAA | 0.0394
158 | GCTCATAC | -0.289
159 | GAAAGCCC | 0.0298
160 | GATCTCGC | -0.16
161 | CAATTCTC | -0.0342
162 | ATTGTGTC | -0.0665
163 | ACTTATAC | 0.0669
164 | AAGTAAGT | -0.139
165 | AACGGCAG | 0.0355
166 | AAAGTTAA | 0.0767
167 | CTGCCGCC | -0.0844
168 | GTTGCCTA | -0.0107
169 | GACCATCA | -0.251
170 | CAAGTTGA | 0.0659
171 | AGTCGGAC | -0.093
172 | TACTATGA | -0.00506
